Test results published in the supplement of paper PMC3334620.
The full ranking holds about 33,000 sequences; the median of “E-score (-0.5 to 0.5)” is about -0.041, and the highest 2% start at about 0.37. This is one part of the list.

These sequences were tested against T1, Ecm22 (UniProt Q05958) (assay: PBM E-score (8-mer binding enrichment) (E-score (-0.5 to 0.5)); higher = stronger / more preferred TF binding; most listed sequences are background and not binding sites). Conditions: protein concentration: 200 nM; construct: GST-full length.
T1 sequence: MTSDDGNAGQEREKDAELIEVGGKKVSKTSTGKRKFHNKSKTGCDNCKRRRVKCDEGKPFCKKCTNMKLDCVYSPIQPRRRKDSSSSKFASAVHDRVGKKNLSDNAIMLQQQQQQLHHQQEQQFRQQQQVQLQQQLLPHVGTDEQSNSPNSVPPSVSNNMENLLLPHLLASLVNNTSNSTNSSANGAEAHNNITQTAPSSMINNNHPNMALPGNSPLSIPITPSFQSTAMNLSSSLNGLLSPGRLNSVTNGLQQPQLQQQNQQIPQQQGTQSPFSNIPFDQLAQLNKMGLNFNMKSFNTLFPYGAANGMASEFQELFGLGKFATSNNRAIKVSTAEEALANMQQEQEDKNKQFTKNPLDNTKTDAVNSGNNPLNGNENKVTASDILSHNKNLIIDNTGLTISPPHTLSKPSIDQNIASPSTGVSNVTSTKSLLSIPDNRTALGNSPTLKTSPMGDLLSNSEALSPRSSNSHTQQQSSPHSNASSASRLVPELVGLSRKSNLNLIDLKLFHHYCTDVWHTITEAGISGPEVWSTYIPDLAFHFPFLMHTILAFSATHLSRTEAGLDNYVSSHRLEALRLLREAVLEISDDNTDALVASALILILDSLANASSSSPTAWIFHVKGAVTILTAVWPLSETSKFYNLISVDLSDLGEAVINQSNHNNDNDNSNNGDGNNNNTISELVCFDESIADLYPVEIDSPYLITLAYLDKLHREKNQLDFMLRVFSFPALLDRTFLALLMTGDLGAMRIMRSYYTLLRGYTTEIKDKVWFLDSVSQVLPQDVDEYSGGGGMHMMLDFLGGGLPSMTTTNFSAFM
Procedure, shortened: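 Using PURExpress in vitro transcription/translation, GST-tagged yeast transcription factors were made in full-length or DNA-binding-domain form. These were applied at about 100-200 nM to double-stranded universal all-10-mer Agilent arrays, and bound protein was detected with fluorescent anti-GST. Scans were normalised with masliner before the Universal PBM Analysis Suite assigned E-scores to ungapped eight-base words pooled with their reverse complements.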

Going from CCATAAGA to AACCTTCC, the “PBM E-score” value rises from -0.26 to -0.157.

Going from CTGAAATA to GCGTCACC, the “PBM E-score” value rises from -0.247 to -0.163.

First: CAGAAACG
Second: ATCGAAAA
The “PBM E-score” value of the first is higher: 0.307 for the first, 0.216 for the second.

First: AAAGTTTA
Second: TAATTACA
The “PBM E-score” value of the first is lower: -0.0406 for the first, -0.00471 for the second.

First: CGGGCGCA
Second: GATGAAAC
The “PBM E-score” value of the first is lower: -0.158 for the first, 0.182 for the second.

First: GGCCCCCC
Second: GAAATAGA
The “PBM E-score” value of the first is lower: -0.359 for the first, 0.129 for the second.

First: GTCTCGCA
Second: GAAGTACC
The “PBM E-score” value of the first is higher: 0.149 for the first, 0.144 for the second.

First: CAGTCGTA
Second: ATAGCCAC
The “PBM E-score” value of the first is higher: 0.418 for the first, -0.0595 for the second.

Going from CCGATGTA to CTTCTACC, the “PBM E-score” value falls from -0.0854 to -0.192.

Going from ACATAGGC to AGACCGTC, the “PBM E-score” value rises from -0.184 to 0.0991.

First: CCTCCGCG
Second: AAAGTACC
The “PBM E-score” value of the first is lower: -0.12 for the first, 0.0186 for the second.

First: TATAGAAA
Second: ACTATAGT
The “PBM E-score” value of the first is lower: 0.0324 for the first, 0.0714 for the second.

First: AATATCAG
Second: GTTCGCAA
The “PBM E-score” value of the first is lower: -0.0359 for the first, 0.284 for the second.

First: CTGCGGCC
Second: CTGCGGGC
The “PBM E-score” value of the first is higher: 0.11 for the first, -0.163 for the second.

First: CTTAAAAC
Second: CGCTAGAC
The “PBM E-score” value of the first is higher: -0.0116 for the first, -0.179 for the second.

First: CGCCGGCG
Second: CATTAAAG
The “PBM E-score” value of the first is higher: 0.0169 for the first, -0.119 for the second.

Compared with AATCGGGT, ACAACACC is lower in “PBM E-score” value: 0.0669 for the first, -0.0964 for the second.

First: TCGTCTCA
Second: CAGCAAAA
The “PBM E-score” value of the first is higher: 0.16 for the first, -0.0123 for the second.

Going from CCCCCGCG to GCATTCGA, the “PBM E-score” value falls from 0.141 to 0.081.

Going from CTCTTACC to AAAGCTAC, the “PBM E-score” value falls from 0.081 to -0.0131.

First: CACCAACG
Second: CTCCTCTA
The “PBM E-score” value of the first is higher: -0.0112 for the first, -0.225 for the second.

Going from GACGGAAA to CTTGCCCA, the “PBM E-score” value falls from 0.133 to -0.0883.

Compared with AGGAAACC, AGTCAGTG is higher in “PBM E-score” value: -0.145 for the first, -0.119 for the second.

Going from ACACGGGG to AAATTTCG, the “PBM E-score” value rises from 0.0433 to 0.214.

Compared with AGCAGCCT, CCGTAAAA is higher in “PBM E-score” value: -0.102 for the first, 0.363 for the second.

Compared with GGGTAAAA, CCGCGGAC is lower in “PBM E-score” value: -0.029 for the first, -0.189 for the second.

Compared with ATTGGCCC, CACCAGCG is higher in “PBM E-score” value: -0.351 for the first, -0.0738 for the second.

Going from AACTTAAA to ATACTACA, the “PBM E-score” value rises from -0.0683 to 0.0442.

Compared with AATGAGAG, AACACTGT is higher in “PBM E-score” value: -0.231 for the first, -0.0705 for the second.

Compared with AACGTTTC, CAGTAAAG is lower in “PBM E-score” value: 0.156 for the first, -0.221 for the second.

Compared with CGCAGAAA, GGTAGTGA is lower in “PBM E-score” value: -0.15 for the first, -0.247 for the second.

Going from GGACGACA to ACAAATGC, the “PBM E-score” value rises from -0.173 to 0.0407.

First: CGGAAACC
Second: AGAAAACA
The “PBM E-score” value of the first is lower: -0.0249 for the first, 0.084 for the second.

Going from AAAGGACA to TAGCCGCA, the “PBM E-score” value falls from -0.0993 to -0.155.

First: GTCATGGA
Second: GTAAAGAC
The “PBM E-score” value of the first is lower: -0.2 for the first, 0.146 for the second.

Compared with ATTAATTC, AGGGATCA is lower in “PBM E-score” value: 0.223 for the first, -0.0911 for the second.

First: AGCAACCC
Second: GTGAGAAC
The “PBM E-score” value of the first is lower: -0.0977 for the first, -0.0868 for the second.

Compared with CACTGAGC, CCCTCAAA is higher in “PBM E-score” value: -0.21 for the first, -0.157 for the second.

Going from AACGGGGT to GAAGCGAA, the “PBM E-score” value rises from 0.137 to 0.207.

Compared with ACAGACTG, TCACACGA is higher in “PBM E-score” value: 0.0261 for the first, 0.256 for the second.

Compared with ATGATTAA, AGTATCGG is lower in “PBM E-score” value: 0.16 for the first, 0.0512 for the second.

Going from ACATTCGT to GCCCTGAC, the “PBM E-score” value falls from 0.37 to -0.342.

Going from TACACTGA to CACCTATA, the “PBM E-score” value rises from 0.0566 to 0.085.

Going from AGACGTCG to GACGGTAA, the “PBM E-score” value falls from 0.171 to 0.0065.

Compared with CAATTAGG, CTCCAATA is lower in “PBM E-score” value: 0.109 for the first, -0.253 for the second.

Going from ACAAAGGA to ATCGGCCG, the “PBM E-score” value falls from -0.0393 to -0.0964.

First: CCCTAACA
Second: GAACGTAA
The “PBM E-score” value of the first is lower: -0.121 for the first, 0.246 for the second.

First: GAGTCTGC
Second: AAGCTGTC
The “PBM E-score” value of the first is lower: -0.0527 for the first, -0.0358 for the second.

Going from CAGCCTTC to AGTCCCGC, the “PBM E-score” value falls from -0.207 to -0.245.

ACGTTGGA and GTACTGGA are the same in “PBM E-score” value: 0.127 for the first, 0.127 for the second.

Going from AGGCCCTC to AACGAGAT, the “PBM E-score” value rises from -0.105 to 0.438.

Going from CCAAGTAC to GATTCTCA, the “PBM E-score” value falls from 0.12 to -0.0618.

First: AGAACGTC
Second: ACCTGCGC
The “PBM E-score” value of the first is higher: -0.0743 for the first, -0.0892 for the second.

Compared with AGGGACGC, AGGCATCG is higher in “PBM E-score” value: -0.0677 for the first, 0.245 for the second.

With GAGGGCCA the “PBM E-score” value was -0.123.
